Laboratory results published in the antibiotic and cytotoxicity screens of Wong et al. (2023).
Some of the results follow.

test system: HepG2; test: cytotoxicity call (relative viability < 0.9); conditions: 10 µM

Q: With `CC(C)c1ccccc1OC[C@@H](O)CN` as the compound, how does the cytotoxicity call read?
A: inactive

Q: For `C[C@H](CO)N1C[C@H](C)[C@@H](CN(C)C(=O)Nc2ccc(C(F)(F)F)cc2)OCCCC[C@H](C)Oc2ccc(NC(=O)c3ccncc3)cc2C1=O`, which cytotoxicity call is on record?
A: inactive

Q: Which cytotoxicity call does the source give for `C[C@H](CO)N1C[C@H](C)[C@H](CN(C)C(=O)Nc2ccc3c(c2)OCO3)OCCCC[C@H](C)Oc2ccc(NC(=O)Nc3ccc(C(F)(F)F)cc3)cc2C1=O` here?
A: inactive

Q: `C[C@@H]1CN([C@@H](C)CO)C(=O)CCCn2nncc2CO[C@H]1CN(C)C(=O)Nc1cccc2ccccc12` was tested. Which cytotoxicity call did it give?
A: inactive

Q: How did the cytotoxicity call turn out when `CC(CS)C(=O)N1CCCC1C(=O)O` (stereo not given) was run?
A: inactive

Q: How did the cytotoxicity call turn out when `CCN1C(=O)S/C(=C\C(=O)O)C1=O` was run?
A: inactive

Q: Which cytotoxicity call does the source give for `COc1ccc(NC(=O)Nc2ccc3c(c2)C(=O)N([C@@H](C)CO)C[C@H](C)[C@@H](CN(C)Cc2ccc(Cl)c(Cl)c2)OCCCC[C@@H](C)O3)cc1` here?
A: inactive

Q: Which cytotoxicity call does the source give for `Cc1noc(N)c1C(=O)O` here?
A: inactive

Q: `C[C@H](CO)N1C[C@H](C)[C@@H](CN(C)S(=O)(=O)c2cn(C)cn2)OCCCC[C@H](C)Oc2ccc(NS(=O)(=O)c3cccs3)cc2C1=O` was tested. Which cytotoxicity call did it give?
A: inactive

Q: Which cytotoxicity call does the source give for `CC(=O)Nc1ccc(S(=O)(=O)Nc2ccc([N+](=O)[O-])cc2)cc1` here?
A: inactive

Q: `C[C@H](O)C#Cc1cnc2c(c1)C(=O)N([C@H](C)CO)C[C@H](C)[C@H](CN(C)Cc1cncnc1)O2` was tested. Which cytotoxicity call did it give?
A: inactive

Q: With `O=C(O)C[C@H]1Nc2ccccc2NC1=O` as the compound, how does the cytotoxicity call read?
A: inactive

Q: Which cytotoxicity call does the source give for `COCCN1CCC(CN)CC1` here?
A: inactive

Q: How did the cytotoxicity call turn out when `C[C@H]1CN([C@@H](C)CO)C(=O)c2cccc(NC(=O)Nc3ccc(C(F)(F)F)cc3)c2O[C@@H]1CN(C)C(=O)Nc1ccc(C(F)(F)F)cc1` was run?
A: active

Q: Which cytotoxicity call does the source give for `CC1(C)OC2CC(=O)OCC23C1CC(=O)C1(C)C3CCC2(C)C(c3ccoc3)OC(=O)C3OC321` (stereo not given) here?
A: inactive

Q: With `C[C@@H]1CCCCO[C@@H](CN(C)Cc2ccc3c(c2)OCO3)[C@@H](C)CN([C@H](C)CO)C(=O)c2cc(NC(=O)Cc3ccccc3)ccc2O1` as the compound, how does the cytotoxicity call read?
A: inactive

Q: `NCC[C@H]1CC[C@H](NC(=O)NC2CCCCC2)[C@@H](CO)O1` was tested. Which cytotoxicity call did it give?
A: inactive

Q: Which cytotoxicity call does the source give for `O=C(C[C@H]1C[C@H]2c3cc(NS(=O)(=O)c4ccc(F)cc4)ccc3O[C@H]2[C@@H](CO)O1)NCCN1CCCCC1` here?
A: inactive

Q: For `COc1ccc(S(=O)(=O)Nc2cccc3c2O[C@H](CN(C)C(=O)NC(C)C)[C@@H](C)CN([C@@H](C)CO)C3=O)cc1`, which cytotoxicity call is on record?
A: inactive

Q: For `CC(C)CC#Cc1cnc2c(c1)C(=O)N([C@@H](C)CO)C[C@@H](C)[C@@H](CN(C)S(=O)(=O)c1ccccc1)O2`, which cytotoxicity call is on record?
A: inactive

Q: `COc1ccc2c3c(n(c2c1)C)[C@H](CO)N(Cc1ccccc1)C[C@]13CCN(CC1)C(=O)c1ccccc1F` was tested. Which cytotoxicity call did it give?
A: inactive

Q: `C[C@H]1CN([C@@H](C)CO)C(=O)c2cc(NC(=O)Nc3cccc4ccccc34)ccc2O[C@@H]1CN(C)C(=O)Nc1ccc(C(F)(F)F)cc1` was tested. Which cytotoxicity call did it give?
A: inactive

Q: Which cytotoxicity call does the source give for `O=C(C[C@H]1C=C[C@H](NC(=O)c2cccc(F)c2)[C@H](CO)O1)NCCN1CCCC1` here?
A: inactive

Q: For `COCC#Cc1ccc2c(c1)O[C@@H](CN(C)S(=O)(=O)c1ccc(C)cc1)[C@@H](C)CN([C@H](C)CO)S2(=O)=O`, which cytotoxicity call is on record?
A: inactive

Q: Which cytotoxicity call does the source give for `C[C@@H]1CCCCO[C@@H](CN(C)S(=O)(=O)c2ccc(F)cc2)[C@@H](C)CN([C@H](C)CO)C(=O)c2cc(NS(=O)(=O)c3cn(C)cn3)ccc2O1` here?
A: inactive

Q: With `COc1ccc(S(=O)(=O)N(C)C[C@H]2OCCCC[C@H](C)Oc3ccc(NC(=O)CCC(F)(F)F)cc3C(=O)N([C@@H](C)CO)C[C@H]2C)cc1` as the compound, how does the cytotoxicity call read?
A: inactive

Q: `N[C@H]1CCCN(C(=O)c2cccs2)C1` was tested. Which cytotoxicity call did it give?
A: inactive

Q: `C[C@@H]1CN([C@@H](C)CO)C(=O)c2cc(NS(=O)(=O)c3cn(C)cn3)ccc2O[C@@H](C)CCCCO[C@@H]1CN(C)C(=O)Nc1cccc2ccccc12` was tested. Which cytotoxicity call did it give?
A: active

Q: How did the cytotoxicity call turn out when `C[C@@H]1CCCCO[C@@H](CN(C)S(=O)(=O)c2cn(C)cn2)[C@@H](C)CN([C@@H](C)CO)C(=O)c2cc(NS(=O)(=O)c3cccs3)ccc2O1` was run?
A: inactive

Q: For `O=C(C1=C[C@@H](c2ccc(C(F)(F)F)cc2)C[C@@H](OCc2ccc(CO)cc2)O1)N1CCN(Cc2ccccc2)CC1`, which cytotoxicity call is on record?
A: inactive

Q: With `COc1ccc(NC(=O)Nc2ccc3c(c2)C(=O)N([C@@H](C)CO)C[C@H](C)[C@H](CN(C)C(=O)Nc2ccc(F)cc2)OCCCC[C@@H](C)O3)cc1` as the compound, how does the cytotoxicity call read?
A: inactive

Q: How did the cytotoxicity call turn out when `COc1ccc(-c2nc(N3CCOCC3)c3sc(CN(C)c4ncc(C(=O)NO)cn4)cc3n2)cn1` was run?
A: active

Q: For `C[C@H](CO)N1C[C@H](C)[C@H](CN(C)S(=O)(=O)c2ccc(Cl)cc2)Oc2c(NC(=O)c3cnccn3)cccc2C1=O`, which cytotoxicity call is on record?
A: inactive

Q: How did the cytotoxicity call turn out when `C[C@@H]1CN([C@H](C)CO)C(=O)c2cccc(NC(=O)C3CC3)c2O[C@H]1CN(C)S(=O)(=O)c1ccc(Cl)cc1` was run?
A: inactive

Q: With `C[C@H]1CN([C@@H](C)CO)C(=O)c2cccc(NS(C)(=O)=O)c2O[C@@H]1CN(C)Cc1ccc(C(=O)Nc2ccccc2N)cc1` as the compound, how does the cytotoxicity call read?
A: inactive

Q: How did the cytotoxicity call turn out when `COc1ccccc1-c1ccc2c(c1)O[C@@H](CN(C)C(=O)c1cccnc1)[C@@H](C)CN([C@H](C)CO)S2(=O)=O` was run?
A: inactive

Q: Which cytotoxicity call does the source give for `Nc1c[n+](N2CCOCC2)no1` here?
A: inactive

Q: Which cytotoxicity call does the source give for `CN1CCN(C(=O)C[C@@H]2C=C[C@H](NS(=O)(=O)c3cccc(F)c3)[C@H](CO)O2)CC1` here?
A: inactive

Q: With `C[C@@H]1CN([C@@H](C)CO)C(=O)c2cccc(NC(=O)CCCCCC(=O)Nc3ccccc3N)c2O[C@H]1CN(C)C(=O)Nc1ccc(F)cc1` as the compound, how does the cytotoxicity call read?
A: inactive

Q: `C[C@@H]1CN([C@H](C)CO)C(=O)c2cccc(NC(=O)Nc3ccc(C(F)(F)F)cc3)c2O[C@@H]1CN(C)Cc1ccncc1` was tested. Which cytotoxicity call did it give?
A: inactive
